Assay results taken from the supplement of paper PMC12217912.
This is one part of the list. The full chains were built here from the parent and the listed change. Values near 0.05 are background.

B1: TEV protease; numbered along this chain (parent)
chain: MGESLFKGPRDYNPISSSICHLTNESDGHTTSLYGIGFGPFIITNKHLFRRNNGTLVVQSLHGVFKVKDTTTLQQHLVDGRDMIIIRMPKDFPPFPQKLKFREPQREERICLVTTNFQTKSMSSMVSDTSCTFPSGDGIFWKHWIQTKDGQCGSPLVSTRDGFIVGIHSASNFTNTNNYFTSVPKNFMELLTNQEAQQWVSGWRLNADSVLWGGHKVFMVKPEEPFQPVKEATQL

Variants of: B1
Experiment: raw area under fraction-flipped curve 0-4 h after induction (AUC4h, not background-subtracted), DNA-recorder readout of cleavage of the substrate (dimensionless); higher = more cleavage of the substrate by the protease variant
Conditions: temperature: 34 °C; time window: 0-4 h after rhamnose induction
Method: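 In vivo DNA recorder in E. coli TOP10(DE3) ΔrhaA at 34 °C. Each TEVp single-site mutant (parent TEVp 0) is paired with a single-site variant of the 7-mer TEVs (canonical ENLYFQ|S). The substrate sits between flexible linkers in a Bxb1-sfGFP-TEVs-SsrA fusion, so cleavage stabilises Bxb1 and speeds flipping of a recombination array, read by NGS. The value is the raw area under the fraction-flipped curve over 0-4 h after rhamnose induction (AUC4h), with ≥20 reads per time point. It is not background-subtracted; inactive controls average about 0.047.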
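Note: Bxb1 expression induced with 0.2% (w/v) L-rhamnose at OD600 near 0.5, cultures sampled hourly, flipped fraction per protease–substrate barcode pair counted by paired-end Illumina sequencing.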

Row | Variant | area with substrate ENLYCQS | area with substrate ENLYEQS | area with substrate ENLYGQS | area with substrate ENLYHQS | area with substrate ENLYIQS | area with substrate ENLYKQS | area with substrate ENLYMQS | area with substrate ENLYNQS | area with substrate ENLYQQS | area with substrate ENLYSQS | area with substrate ENLYTQS | area with substrate ENLYVQS | area with substrate ENLYWQS | area with substrate ENLYDQS | area with substrate ENLYLQS | area with substrate ENLYPQS | area with substrate ENLYRQS | area with substrate ENLYYQS
1 | W141R | 0.0508 | 0.0507 | 0.039 | 0.0566 | 0.0453 | 0.0658 | 0.0509 | 0.059 | 0.0727 | 0.0537 | 0.0321 | 0.0622 | 0.0577 |  |  |  |  | 
2 | T147I | 0.0787 | 0.0638 | 0.0568 | 0.0624 |  | 0.0774 | 0.0607 | 0.061 | 0.0762 | 0.0482 | 0.0653 | 0.0776 | 0.062 | 0.052 | 0.0616 | 0.0496 | 0.0472 | 0.067
3 | T147W | 0.064 | 0.0593 | 0.0638 | 0.0564 | 0.0605 |  | 0.055 | 0.0666 |  | 0.0593 | 0.0496 | 0.0661 | 0.06 | 0.0704 |  | 0.0671 | 0.0604 | 0.0502
4 | P14G | 0.0745 | 0.0585 | 0.0524 | 0.0799 | 0.122 | 0.068 |  | 0.0793 | 0.0636 | 0.059 | 0.0997 | 0.142 | 0.0743 | 0.0536 | 0.113 | 0.0701 | 0.082 | 
5 | P14D | 0.0831 | 0.0654 | 0.0932 | 0.066 | 0.136 | 0.0793 | 0.0897 | 0.0821 | 0.0354 | 0.0593 | 0.0662 | 0.106 | 0.0856 | 0.0685 | 0.0843 | 0.0727 | 0.07 | 0.079
6 | K142P | 0.0656 | 0.0598 | 0.0559 | 0.0569 | 0.0732 | 0.0725 | 0.0676 |  | 0.0585 | 0.075 | 0.0653 |  |  | 0.0488 |  | 0.0817 | 0.06 | 
7 | K142D | 0.0794 | 0.0608 | 0.0566 | 0.0533 |  | 0.0647 |  | 0.0697 |  | 0.0701 |  | 0.0723 | 0.0025 | 0.0652 |  |  | 0.0672 | 
8 | G39H | 0.0217 | 0.0518 | 0.042 | 0.0471 | 0.0266 | 0.0363 | 0.0374 | 0.0334 | 0.0519 | 0.0502 |  | 0.0469 | 0.0466 |  |  | 0.0388 | 0.0521 | 0.0483
9 | G39C | 0.0477 | 0.0469 | 0.0469 | 0.057 | 0.0434 | 0.0428 | 0.0758 | 0.0509 |  | 0.0457 | 0.0393 | 0.08 | 0.0534 | 0.0513 | 0.0676 | 0.0367 | 0.0329 | 
10 | Q118V | 0.0721 | 0.0664 |  |  |  | 0.0079 |  | 0.0609 |  | 0.0722 |  | 0.107 | 0.0859 |  |  | 0.06 |  | 
11 | V126E | 0.0785 | 0.123 | 0.0427 | 0.0711 |  | 0.034 | 0.0775 | 0.0692 | 0.0563 |  |  |  | 0.0617 |  | 0.0973 | 0.0833 | 0.0677 | 
12 | K46I | 0.0683 | 0.0594 | 0.0576 | 0.0651 | 0.0738 | 0.0619 | 0.0633 | 0.0656 | 0.0661 | 0.0733 |  | 0.0543 | 0.0629 | 0.0578 |  | 0.0647 | 0.0658 | 
13 | D11G | 0.0889 | 0.0555 | 0.0719 | 0.059 |  | 0.0662 | 0.0845 | 0.068 | 0.0668 | 0.074 | 0.0629 | 0.126 | 0.0797 | 0.0663 | 0.0781 |  | 0.0586 | 
14 | T132Q | 0.0709 | 0.0233 | 0.0523 | 0.0532 | 0.0855 |  |  |  | 0.076 | 0.0743 |  |  | 0.0738 |  | 0.0726 | 0.0529 |  | 
15 | S60R | 0.0787 | 0.0611 | 0.0543 | 0.0607 | 0.118 | 0.0541 | 0.0789 | 0.0685 | 0.0783 |  | 0.0722 |  |  | 0.0584 | 0.108 |  | 0.055 | 0.0612
16 | S130D | 0.0809 | 0.0607 | 0.067 | 0.0724 |  | 0.0576 | 0.11 | 0.0712 | 0.051 |  |  | 0.0747 |  |  |  | 0.0741 | 0.0618 | 0.0643
17 | K100H | 0.0782 | 0.0479 | 0.07 | 0.067 |  | 0.0613 | 0.0806 |  | 0.0535 |  | 0.0804 | 0.113 | 0.0792 | 0.0486 | 0.083 |  | 0.0606 | 0.0409
18 | K100F | 0.0961 | 0.0417 |  | 0.0611 | 0.113 | 0.0987 |  | 0.0581 |  |  | 0.0855 | 0.106 | 0.0812 |  |  |  |  | 0.0626
19 | I110S | 0.0603 | 0.0538 | 0.0613 | 0.0503 | 0.0694 | 0.0352 | 0.0369 | 0.053 | 0.0646 | 0.0496 | 0.0674 | 0.0598 |  | 0.0559 |  | 0.0663 | 0.061 | 0.0473
20 | T44H | 0.0514 | 0.0536 | 0.0622 |  | 0.0584 | 0.0523 | 0.0438 | 0.0899 | 0.0424 |  | 0.0573 |  | 0.0723 | 0.0199 | 0.049 |  | 0.0536 | 
21 | N52D | 0.0674 | 0.0604 | 0.0618 | 0.0636 |  | 0.0568 | 0.0621 |  |  | 0.0474 |  | 0.0955 | 0.062 | 0.0643 |  | 0.0617 |  | 
22 | R51K | 0.0777 |  |  |  |  |  | 0.0883 |  |  |  |  | 0.122 | 0.0805 |  |  |  |  | 
23 | R51F | 0.0966 | 0.0681 | 0.0861 | 0.0739 | 0.163 | 0.0413 | 0.0763 | 0.0681 |  | 0.0712 |  | 0.129 | 0.119 | 0.0714 |  | 0.0601 | 0.064 | 0.0735
24 | D79H | 0.0818 | 0.0613 | 0.0655 | 0.0568 | 0.107 | 0.0548 | 0.0688 | 0.0596 |  | 0.0314 |  | 0.133 | 0.107 |  |  |  | 0.0593 | 0.0602
25 | L56E | 0.0555 | 0.0456 | 0.0482 |  |  | 0.0484 | 0.0519 | 0.0504 |  |  | 0.0434 |  |  |  |  | 0.0455 |  | 0.056
26 | D161R | 0.0641 | 0.0599 | 0.0553 | 0.0531 | 0.0844 | 0.0172 | 0.0532 | 0.0563 | 0.0582 | 0.063 | 0.0578 | 0.0668 | 0.0665 | 0.0538 | 0.0511 | 0.0515 | 0.0485 | 0.0374
